Data: patent US20170174769A1 (Regeneron, published 2017)
Like-named read-outs stand apart in the source and are kept apart here. Blank lines part the entries; values can stand above or below the binder they belong to.

Tests used:
[1] = biological target: T1, cell-surface human FGFR1c (amino acids 1-731 of NP_075594) with cell-surface human KLB on … (human, UniProt P11362 22-822); test: cell-based or functional assay
[2] = biological target: T2, human KLB and human FGFR1c co-expressed on HEK293/hKLB/hFGFR1c/SRE-luc cells (human, UniProt Q86Z14 1-1044; P11362 22-822); test: cell-based or functional assay
[3] = biological target: T3, extracellular domain of human KLB expressed with C-terminal HA and hexahistidine tags (human, UniProt Q86Z14 1-996); test: SPR, mAb captured, 25 C
T3 construct: also called hKLB-HA-6His; hKLB-HA-6his
T3 sequence: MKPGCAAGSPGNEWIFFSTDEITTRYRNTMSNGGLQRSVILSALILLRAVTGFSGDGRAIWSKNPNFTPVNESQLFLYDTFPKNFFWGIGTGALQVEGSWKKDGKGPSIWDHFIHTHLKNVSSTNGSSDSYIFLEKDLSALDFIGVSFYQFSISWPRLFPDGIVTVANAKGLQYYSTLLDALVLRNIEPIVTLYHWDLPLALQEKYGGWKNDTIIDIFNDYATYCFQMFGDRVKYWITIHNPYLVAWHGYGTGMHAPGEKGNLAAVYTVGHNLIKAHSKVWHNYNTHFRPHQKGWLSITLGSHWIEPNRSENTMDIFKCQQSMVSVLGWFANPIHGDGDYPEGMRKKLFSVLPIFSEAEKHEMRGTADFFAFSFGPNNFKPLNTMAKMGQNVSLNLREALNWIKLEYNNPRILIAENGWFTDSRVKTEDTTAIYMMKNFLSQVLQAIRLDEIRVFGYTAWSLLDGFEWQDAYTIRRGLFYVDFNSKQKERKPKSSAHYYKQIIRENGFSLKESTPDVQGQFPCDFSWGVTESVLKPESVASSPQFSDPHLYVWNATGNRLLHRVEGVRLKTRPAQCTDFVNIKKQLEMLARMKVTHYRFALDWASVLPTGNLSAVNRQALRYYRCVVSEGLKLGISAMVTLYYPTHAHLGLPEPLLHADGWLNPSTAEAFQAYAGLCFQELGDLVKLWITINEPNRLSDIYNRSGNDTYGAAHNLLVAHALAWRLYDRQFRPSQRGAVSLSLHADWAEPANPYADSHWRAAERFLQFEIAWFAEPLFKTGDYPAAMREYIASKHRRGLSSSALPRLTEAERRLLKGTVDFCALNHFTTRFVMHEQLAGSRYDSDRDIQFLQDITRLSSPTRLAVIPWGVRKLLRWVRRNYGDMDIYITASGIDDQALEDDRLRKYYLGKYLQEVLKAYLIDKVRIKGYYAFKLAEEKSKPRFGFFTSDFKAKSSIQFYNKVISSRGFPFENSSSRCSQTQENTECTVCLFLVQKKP
Experimental: (§1) Equilibrium dissociation constants (KD values) for human KLB or human FGFR1c binding to purified anti-KLB/FGFR1c monoclonal antibodies were determined using a real-time surface plasmon resonance biosensor using a Biacore T-200 or 4000 instrument. The Biacore sensor surface was derivatized by amine coupling with either a polyclonal rabbit anti-mouse antibody (GE, # BR-1008-38) or with a monoclonal mouse anti-human Fc antibody (GE, # BR-1008-39) to capture anti-KLB/FGFR1c monoclonal antibodies expressed with either a mouse Fc or a human Fc, respectively. All Biacore binding studies were performed in a buffer composed of 0.01M HEPES pH 7.4, 0.15M NaCl, 3mM EDTA, 0.05% v/v Surfactant P20 (HBST running buffer). […] Association of hKLB-HA-6His or hFGFR1c-V5-6His to the captured monoclonal antibody was monitored for 3.5 to 4 minutes and the dissociation of hKLB-HA-6His or hFGFR1c-V5-6His in HBST running buffer was monitored for 8-12 minutes. All the binding kinetics experiments were performed at 25° C. or 37° C. Kinetic association (kₐ) and dissociation (kd) rate constants were determined by fitting the real-time sensorgrams to a 1:1 binding model using Scrubber 2.0c curve fitting software. Binding dissociation equilibrium constants (KD) and dissociative half-lives (t½) were calculated from the kinetic rate constants as: […]

[4] = biological target: T4, extracellular domain of human FGFR1c expressed with C-terminal V5 and hexahistidine tags (human, UniProt P11362 22-376); test: SPR, mAb captured, 25 C
T4 construct: also called hFGFR1c-V5-6His
T4 sequence: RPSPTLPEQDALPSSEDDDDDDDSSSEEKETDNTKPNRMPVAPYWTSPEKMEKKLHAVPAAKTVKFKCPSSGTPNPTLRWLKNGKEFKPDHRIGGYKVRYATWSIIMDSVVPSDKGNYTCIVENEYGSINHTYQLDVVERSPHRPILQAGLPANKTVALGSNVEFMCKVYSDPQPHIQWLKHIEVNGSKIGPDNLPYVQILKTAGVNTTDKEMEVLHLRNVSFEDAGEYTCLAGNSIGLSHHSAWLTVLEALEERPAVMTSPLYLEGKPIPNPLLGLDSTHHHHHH
Experimental: as §1

[5] = biological target: T3, extracellular domain of human KLB …; test: SPR, mAb captured, 37 C
Experimental: as §1

[6] = biological target: T4, extracellular domain of human FGFR1c …; test: SPR, mAb captured, 37 C
Experimental: as §1

[7] = biological target: T1, cell-surface human FGFR1c (amino acids …); test: cell-based or functional assay; remark: listed apart in the source
[8] = biological target: T5, full-length human FGFR1c on HEK293/hFGFR1c/SRE-luc cells (human, UniProt P11362 22-822); test: FACS on stable HEK293 cells, 67 nM
T5 construct: amino acids 1-733 of NP_075593
Experimental: (§2) For the FACS analysis, HEK293 parental, HEK293/hFGFR1c, HEK293/hFGFR1c/hKLB, and HEK293/mFGFR1c/mKLB cells were dissociated and plated onto 96-well v-bottom plates at 0.5×10⁶ cells/well in 2% FBS/PBS. […] Control mAb2 was tested at a concentration of 965 nM. After primary protein incubation cells were washed and incubated with 3.75 μg/mL fluorescently conjugated secondary antibodies for 30 minutes at 4° C. Cells were filtered and analyzed on Accuri™ 6 Flow Cytometer. Unstained and secondary antibody alone controls were also tested for all cell lines. The results were analyzed using FlowJo version 9.52 software and geometric mean (Geom. Mean) of fluorescence for viable cells were determined. Geom. mean of fluorescence for each antibody was then normalized to Geom. mean of unstained cells to obtain relative binding of antibody (binding ratios) per each cell type.

[9] = biological target: T2, human KLB and human FGFR1c co-expressed …; test: FACS on stable HEK293 cells, 67 nM
Experimental: as §2

% Activation [1]: 2.2%
EC50, SRE-luc activation [1]: 1.3 nM
EC50, SRE-luc activation without ligand [2]: 1.2 nM
IC50, inhibition of 1 nM 6His-hFGF21 [2]: 0.72 nM
Maximum Activation (%) [2]: 2.2%
Maximum Inhibition (%) [2]: 58%
20 nM hKLB-HA-6His Bind (RU) [3]: 12.8 RU
Kd [3]: 0.725 nM
koff [3]: 8.92e-05 s⁻¹
kon [3]: 123000 M⁻¹ s⁻¹
t1/2 [3]: 2.16 h
180 nM hFGFR1c-V5-6His Bind (RU) [4]: 1.2 RU
binding result [4]: no binding (tested: 180 nM)
20 nM hKLB-HA-6His Bind (RU) [5]: 45.4 RU
Kd [5]: 2.89 nM
koff [5]: 0.000265 s⁻¹
kon [5]: 91600 M⁻¹ s⁻¹
t1/2 [5]: 0.728 h
180 nM hFGFR1c-V5-6His Bind (RU) [6]: 1.2 RU
B1: scFv8092N-IgG4mutFc x scFv8870P-IgG4mutFc* Heterodimer (bispecific antibody)
chain 1: QVQLQESGPGLVKPSETLSLTCTVSGGSISSYYWSWIRQPPGKGLDWIGHIYYSGTTYYNPSLKSRVSISLDTSKNQFSLKLSSVTAADTAVYYCARHLRGYSSGREFDYWGQGTLVTVSSGGGGSGGGGSGGGGSDIQMTQSPSSLSASVGGRVSLTCRASQSIFSYLNWYQQKPGKAPKLLIYAASNLQSGVPSRFSGSGSGTDFTLTISSLQPEDFATYSCQQSYNIPYTFGQGTKLEIKGGGGSGGGGSGGGGS[human IgG4 Fc with S228P (EU numbers) not spelt out]
chain 2: EVQLVESGGGVVRPGGSLRLSCAASGFKFDVYGMSWVRQLPGKGLEWVSGISWTGGSSGYADSVKGRFTISRDNGKKSLYLQMNSLRAEDTALYYCTREEDYWGQGTLVTVSSGGGGSGGGGSGGGGS[about 100 residues not spelt out]LTFGGGTKVEIKGGGGSGGGGSGGGGSESKYGPPCPPCPAPEFLGGPSVFLFPPKPKDTLMISRTPEVTCVVVDVSQEDPEVQFNWYVDGVEVHNAKTKPREEQFNSTYRVVSVLTVLHQDWLNGKEYKCKVSNKGLPSSIEKTISKAKGQPREPQVYTLPPSQEEMTKNQVSLTCLVKGFYPSDIAVEWESNGQPENNYKTTPPVLDSDGSFFLYSRLTVDKSRWQEGNVFSCSVMHEALHNRFTQKSLSLSPGK
notes: also called 8870P ScFv-Fc*/8092N ScFv-Fc; H4H8870P ScFv-Fc*/H4H8092N ScFv-Fc

% Activation [1]: 22.6%
EC50, SRE-luc activation [1]: 1 nM
% Activation [7]: 20.2%
EC50, SRE-luc activation [7]: 1.1 nM
MFI Ratio to unstained cells [8]: 4 fold
MFI Ratio to unstained cells [9]: 12 fold
B2: Fusion 3 (Homodimer) (Fc fusion)
chain: QVQLVESGGGVVQPGRSLRLSCVASGFTFSSYGMHWVRQAPGKGLEWVAVISFDGSNKYYADSVKGRFTISRDNSKNTLYLQMNSLRPADTAVYYCAKDRSNYYYFGMDVWGQGTTVTVSSGGGGSGGGGSGGGGSDIVMTQTPLSLPVTPGEPASISCRSSQSLLDSDDGNTYLDWYLQKPGQSPQLLIYTLSYRASGVPDRFSGSGSGTDFTLKISRVEAEDVGVYYCMQRIEFPLTFGGGTKVEIKGGGGSGGGGSGGGGS[human IgG4 Fc with S228P (EU numbers) not spelt out]GGGGSGGGGSGGGGSLLQFGGQVRQRYLYTDDAQQTEAHLEIREDGTVGGAADQSPESLLQLKALKPGVIQILGVKTSRFLCQRPDGALYGSLHFDPEACSFRELLLEDGYNVYQSEAHGLPLHLPGNKSPHRDPAPRGPARFLPLPGLPPAPPEPPGILAPQPPDVGSSDPLSMVGPSQGRSPSYAS
notes: also called 8900P ScFv-Fc fusion; Anti-hFGFR1c(H4H8900P ScFv)-Fc-[deltaN hFGF21(L37-S209)]
